# Data published in PubChem BioAssay (Tox21).
# Several values for one entry are separate records, joined by “and”; a condition that tells them apart may be missing. Equal entries are not always repeated. The shares of active, inactive and inconclusive entries below differ from those in the screen. Potencies of inconclusive entries are doubtful fits and often do not repeat. Activity calls are given as the source filed them. Calls come from the whole dose curve; as a rule, active = well fitted curve in the direction sought with a large enough effect in the repeat runs; inconclusive = weak or mixed curves; inactive = no such curve, though single readings can be large; an effect the other way counts as inactive or inconclusive.
# Experiment: Caspase-3/7 induction in HepG2 cells by small molecules, qHTS assay (AID 1346978); note: nearly all actives have a fitted effect of over 15% in size
# Conditions: HepG2 caspase-3/7 activation, Caspase-Glo luminescence, 17 h; series mostly up to 92.4 µM
# Summary of the method: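 Wild-type HepG2 cells (2,000/well) were settled 5 h at 37 C, 5% CO2, then exposed to compounds in DMSO for 17 h. Caspase-3/7 activity was read by luminescence 30 min after adding Caspase-Glo 3/7 reagent at room temperature.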
# Potency is the fitted concentration of half-maximal effect; tags give direction and shape of the fitted curve.
row,SMILES,Potency
1,CC1(c2ccc(Oc3ccccc3)cc2)OC(=O)N(Nc2ccccc2)C1=O (stereo not given),"inconclusive: 77.4 µM [activator, single point]"
2,CCN(CC)c1c([N+](=O)[O-])cc(C(F)(F)F)c(N)c1[N+](=O)[O-],"inconclusive: 68.6 µM [activator, single point]"
3,CC(=O)c1cc2c(cc1C)C(C)(C)C(C)CC2(C)C (stereo not given),"inconclusive: 68.6 µM [activator, single point]"
4,CCCCC(C#N)(Cn1cncn1)c1ccc(Cl)cc1 (stereo not given),inactive
5,O=c1[nH]c2ccccc2n1CCCN1CCC(n2c(=O)[nH]c3cc(Cl)ccc32)CC1,"inconclusive: 33.5 µM [activator, partial curve, poor fit]"
6,O.O.O.O=C([O-])[C@H]([O-])[C@@H]([O-])C(=O)[O-].O=C([O-])[C@H]([O-])[C@@H]([O-])C(=O)[O-].[K+].[K+].[Sb+3].[Sb+3],inactive

# Experiment: Caspase-3/7 induction in CHO-K1 cells by small molecules, qHTS cell viability counter screen (AID 1346979); note: nearly all actives have a fitted effect of over 35% in size
# Conditions: CellTiter-Fluor fluorescence, 17 h; series mostly up to 92.4 µM
# Summary of the method: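 Cytotoxicity counter screen: CellTiter-Fluor added to compound-treated wild-type CHO-K1 cells at 16 h (37C, 5% CO2), fluorescence measured 1 h later; same wells as caspase-3/7 measurement.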
row,SMILES,Potency
1,CCCCCCOC(=O)c1ccccc1C(=O)OCCCCCC,inactive
2,CCN(CC)c1c([N+](=O)[O-])cc(C(F)(F)F)c(N)c1[N+](=O)[O-],"inconclusive: 68.6 µM [cytotoxic, single point]"
3,CC(=O)c1cc2c(cc1C)C(C)(C)C(C)CC2(C)C (stereo not given),"inconclusive: 61.1 µM [cytotoxic, single point]"
4,Fc1ccc(Oc2ccnc3cc(Cl)cc(Cl)c23)cc1,"inconclusive: 68.6 µM [cytotoxic, single point]"
5,CCC[N+](=O)[O-],inactive
6,CCOP(=S)(OCC)SCn1c(=O)oc2cc(Cl)ccc21,"inconclusive: 68.6 µM [cytotoxic, single point]"
7,Oc1c(Cl)c(Cl)cc(Cl)c1Cl,"inconclusive: 74.8 µM [cytotoxic, single point]"
8,Nc1c(Cl)cc([N+](=O)[O-])cc1Cl,"inconclusive: 68.6 µM [cytotoxic, single point]"
9,COP(=S)(OC)SCn1nnc2ccccc2c1=O,inconclusive: 67.3 µM [cytotoxic] and inconclusive: 68.6 µM [cytotoxic]
10,CN(C)CCc1c[nH]c2cccc(O)c12,inconclusive: 67.9 µM [cytotoxic]
11,C=CC(=O)OC(C)(C)C,inactive

# Experiment: Caspase-3/7 induction in CHO-K1 cells by small molecules, qHTS assay (AID 1346980); note: nearly all actives have a fitted effect of over 15% in size
# Conditions: CHO-K1 caspase-3/7 induction, Caspase-Glo luminescence, 17 h; series mostly up to 92.4 µM
# Summary of the method: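 Wild-type cells were seeded at 1,500 per well and settled 5 hr at 37 C, 5% CO2, then exposed to DMSO-dissolved compounds for 17 hr. Caspase-Glo 3/7 reagent was added, and luminescence was read after 30min at room temperature.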
row,SMILES,Potency
1,CCOC(=S)S,"active: 61.1 µM and inconclusive: 10.3 µM [activator, partial curve, poor fit]"
2,CC(=O)c1cc2c(cc1C)C(C)(C)C(C)CC2(C)C (stereo not given),"inconclusive: 68.6 µM [activator, single point]"
3,CCCCC(C#N)(Cn1cncn1)c1ccc(Cl)cc1 (stereo not given),inactive
4,COc1cc(C=O)cc2c1[C@H](COC(N)=O)[C@]1(OC(C)=O)ON2C[C@H]2[C@@H]1N2C(C)=O,active: 61.1 µM
5,O=S(=O)(O)C(F)(F)C(F)(F)C(F)(F)C(F)(F)F,inactive

# Experiment: Caspase-3/7 induction in HepG2 cells by small molecules, qHTS cell viability counter screen (AID 1346981); note: nearly all actives have a fitted effect of over 30% in size
# Conditions: CellTiter-Fluor fluorescence, 17 h; series mostly up to 92.4 µM
# Summary of the method: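 Counter screen for cytotoxicity: HepG2 exposed 16 hr to compounds, then CellTiter-Fluor viability signal (fluorescence, 1 hr reagent incubation).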
row,SMILES,Potency
1,Nc1ccc(-c2ccccc2)cc1,"inconclusive: 62.8 µM [cytotoxic, partial curve, poor fit]"
2,Nc1ccc([N+](=O)[O-])cc1[N+](=O)[O-],active: 47.3 µM
3,COc1ccc(Cc2nccc3cc(OC)c(OC)cc23)cc1OC,inconclusive: 33.5 µM [cytotoxic]
4,CC1COC(Cn2cncn2)(c2ccc(Oc3ccc(Cl)cc3)cc2Cl)O1 (stereo not given),active: 43.3 µM
5,N#CCC#N,"inconclusive: 77 µM [cytotoxic, partial curve, poor fit]"
6,CCCC1COC(Cn2cncn2)(c2ccc(Cl)cc2Cl)O1 (stereo not given),"inconclusive: 69.8 µM [cytotoxic, single point] and inconclusive: 68.6 µM [cytotoxic, single point]"
7,Nc1ccc(Cc2ccc(N)c(Cl)c2)cc1Cl,"inconclusive: 52.7 µM [cytotoxic, partial curve]"
8,CC1(C)CCC(Cc2ccc(Cl)cc2)C1(O)Cn1cncn1 (stereo not given),"inconclusive: 68.6 µM [cytotoxic, single point]"
9,Nc1ccc(Sc2ccc(N)cc2)cc1,"inconclusive: 68.6 µM [cytotoxic, single point]"
10,N#Cc1cc([N+](=O)[O-])ccc1N,"inconclusive: 61.1 µM [cytotoxic, partial curve]"
11,O=c1[nH]c2ccccc2n1CCCN1CCC(n2c(=O)[nH]c3cc(Cl)ccc32)CC1,"inconclusive: 18.8 µM [cytotoxic, partial curve]"
12,COc1cc(C=O)cc2c1[C@H](COC(N)=O)[C@]1(OC(C)=O)ON2C[C@H]2[C@@H]1N2C(C)=O,active: 2.73 µM
13,O=S(=O)(O)C(F)(F)C(F)(F)C(F)(F)C(F)(F)F,"inconclusive: 32.5 µM [cytotoxic, single point]"
14,CCCCN(CCCC)C(=S)[S-].CCCCN(CCCC)C(=S)[S-].[Zn+2],"inconclusive: 30.6 µM [cytotoxic, single point]"
15,O=C(c1ccccc1)C(Cl)Cl,"inconclusive: 77 µM [cytotoxic, partial curve, poor fit]"
16,Clc1ccc(CSC(Cn2ccnc2)c2ccc(Cl)cc2Cl)cc1 (stereo not given),"inconclusive: 33.5 µM [cytotoxic, single point]"
17,COP(=O)(OC)Oc1ccc([N+](=O)[O-])cc1,"inconclusive: 68.6 µM [cytotoxic, single point]"
18,Oc1ccc(C(=C(Cl)Cl)c2ccc(O)cc2)cc1,"inconclusive: 68.5 µM [cytotoxic, single point]"
